Among the data in paper PMC12820563 are binding signal (RPM ratio (pull-down/input)) values, retold here.

The list shows a part of the results. The list includes weakly bound sequences.

In this assay the target is T1, MBP-FoxP3dN (UniProt Q99JB6).
T1 sequence: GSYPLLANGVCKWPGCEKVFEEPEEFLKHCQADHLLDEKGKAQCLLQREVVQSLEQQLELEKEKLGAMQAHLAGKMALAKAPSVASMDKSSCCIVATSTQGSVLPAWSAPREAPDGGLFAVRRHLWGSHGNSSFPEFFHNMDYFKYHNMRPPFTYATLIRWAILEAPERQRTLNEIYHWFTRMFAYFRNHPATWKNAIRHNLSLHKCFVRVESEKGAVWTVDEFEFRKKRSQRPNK
Description: PD-seq (MBP pull-down with sequencing). The following applies: 20 mM Tris-HCl pH 7.5, 100 mM NaCl, 1.5 mM MgCl2, 0.4 uM protein, 0.1 uM dsDNA library, 30 min, room temperature, amylose pull-down; high values mean tight binding; double strand, one strand shown.
Turning to “GATGATTGTTCTCCCAGCTGATGAATTGTTATAATCGAGTAAACAAATTTTCCTAATCTTTCTGTTCAAGCGCCATCTAC”, the binding signal (RPM ratio (pull-down/input)) came out at 1.03.
Turning to “GATGATTGTTCTCCCAGCTGATGAATTCCGTTGGTCGAGTAAACAAATTTTCCTAATCTTTCTGTTCAAGCGCCATCTAC”, the binding signal (RPM ratio (pull-down/input)) came out at 1.33.
“GATGATTGTTCTCCCAGCTGATGAATTTCCCCGTTCGAGTAAACAAATTTTCCTAATCTTTCTGTTCAAGCGCCATCTAC”: the binding signal (RPM ratio (pull-down/input)) is 0.218.
“GATGATTGTTCTCCCAGCTGATGAATTCCGTGCCTCGAGTAAACAAATTTTCCTAATCTTTCTGTTCAAGCGCCATCTAC”: the binding signal (RPM ratio (pull-down/input)) worked out at 0.796.
Under “GATGATTGTTCTCCCAGCTGATGAATTACGAGCGTCGAGTAAACAAATTTTCCTAATCTTTCTGTTCAAGCGCCATCTAC” stands 0.56; under “GATGATTGTTCTCCCAGCTGATGAATTCACTCGTTCGAGTAAACAAATTTTCCTAATCTTTCTGTTCAAGCGCCATCTAC”, 0.387; under “GATGATTGTTCTCCCAGCTGATGAATTGTCTCAGTCGAGTAAACAAATTTTCCTAATCTTTCTGTTCAAGCGCCATCTAC”, 0.318.
Regarding “GATGATTGTTCTCCCAGCTGATGAATTTACATGGTCGAGTAAACAAATTTTCCTAATCTTTCTGTTCAAGCGCCATCTAC”, the binding signal (RPM ratio (pull-down/input)) was 0.493.
The same measure for “GATGATTGTTCTCCCAGCTGATGAATTACTTCGATCGAGTAAACAAATTTTCCTAATCTTTCTGTTCAAGCGCCATCTAC”: 0.247; for “GATGATTGTTCTCCCAGCTGATGAATTTACTTCGTCGAGTAAACAAATTTTCCTAATCTTTCTGTTCAAGCGCCATCTAC”: 0.559.
The same measure for “GATGATTGTTCTCCCAGCTGATGAATTGGGTTGCTCGAGTAAACAAATTTTCCTAATCTTTCTGTTCAAGCGCCATCTAC”: 0.931.
On to “GATGATTGTTCTCCCAGCTGATGAATTCAGAAGCTCGAGTAAACAAATTTTCCTAATCTTTCTGTTCAAGCGCCATCTAC”, for which the binding signal (RPM ratio (pull-down/input)) was found to be 0.209.
Consider “GATGATTGTTCTCCCAGCTGATGAATTCCTGTACTCGAGTAAACAAATTTTCCTAATCTTTCTGTTCAAGCGCCATCTAC”, for which the binding signal (RPM ratio (pull-down/input)) came out at 0.404.
The same measure for “GATGATTGTTCTCCCAGCTGATGAATTATCACTATCGAGTAAACAAATTTTCCTAATCTTTCTGTTCAAGCGCCATCTAC”: 0.505.
The same measure for “GATGATTGTTCTCCCAGCTGATGAATTTTTGCTCTCGAGTAAACAAATTTTCCTAATCTTTCTGTTCAAGCGCCATCTAC”: 0.422; for “GATGATTGTTCTCCCAGCTGATGAATTCCACGAGTCGAGTAAACAAATTTTCCTAATCTTTCTGTTCAAGCGCCATCTAC”: 0.257.
As for “GATGATTGTTCTCCCAGCTGATGAATTCGTAATTTCGAGTAAACAAATTTTCCTAATCTTTCTGTTCAAGCGCCATCTAC”, the binding signal (RPM ratio (pull-down/input)) worked out at 0.623.
“GATGATTGTTCTCCCAGCTGATGAATTCTACTCCTCGAGTAAACAAATTTTCCTAATCTTTCTGTTCAAGCGCCATCTAC”: the binding signal (RPM ratio (pull-down/input)) came to 0.336.
Under “GATGATTGTTCTCCCAGCTGATGAATTACGCTGCTCGAGTAAACAAATTTTCCTAATCTTTCTGTTCAAGCGCCATCTAC” stands 0.655; under “GATGATTGTTCTCCCAGCTGATGAATTCAACCGTTCGAGTAAACAAATTTTCCTAATCTTTCTGTTCAAGCGCCATCTAC”, 0.334.
The same measure for “GATGATTGTTCTCCCAGCTGATGAATTAGCTCGGTCGAGTAAACAAATTTTCCTAATCTTTCTGTTCAAGCGCCATCTAC”: 0.209; for “GATGATTGTTCTCCCAGCTGATGAATTTTAGAATTCGAGTAAACAAATTTTCCTAATCTTTCTGTTCAAGCGCCATCTAC”: 0.632.
In the case of “GATGATTGTTCTCCCAGCTGATGAATTCTCACCATCGAGTAAACAAATTTTCCTAATCTTTCTGTTCAAGCGCCATCTAC”, the binding signal (RPM ratio (pull-down/input)) came out at 0.338.
In the case of “GATGATTGTTCTCCCAGCTGATGAATTACCTAAATCGAGTAAACAAATTTTCCTAATCTTTCTGTTCAAGCGCCATCTAC”, the binding signal (RPM ratio (pull-down/input)) came out at 0.295.
In the case of “GATGATTGTTCTCCCAGCTGATGAATTTAGTGGATCGAGTAAACAAATTTTCCTAATCTTTCTGTTCAAGCGCCATCTAC”, the binding signal (RPM ratio (pull-down/input)) turned out to be 0.779.
The same measure for “GATGATTGTTCTCCCAGCTGATGAATTAGCCTACTCGAGTAAACAAATTTTCCTAATCTTTCTGTTCAAGCGCCATCTAC”: 0.473; for “GATGATTGTTCTCCCAGCTGATGAATTCGACCGGTCGAGTAAACAAATTTTCCTAATCTTTCTGTTCAAGCGCCATCTAC”: 0.207; for “GATGATTGTTCTCCCAGCTGATGAATTTTAGGGGTCGAGTAAACAAATTTTCCTAATCTTTCTGTTCAAGCGCCATCTAC”: 0.306.
Under “GATGATTGTTCTCCCAGCTGATGAATTTCCGTGCTCGAGTAAACAAATTTTCCTAATCTTTCTGTTCAAGCGCCATCTAC” stands 0.332; under “GATGATTGTTCTCCCAGCTGATGAATTCACCTTTTCGAGTAAACAAATTTTCCTAATCTTTCTGTTCAAGCGCCATCTAC”, 0.312; under “GATGATTGTTCTCCCAGCTGATGAATTGGTACCGTCGAGTAAACAAATTTTCCTAATCTTTCTGTTCAAGCGCCATCTAC”, 0.466.
As to “GATGATTGTTCTCCCAGCTGATGAATTGTCTAAGTCGAGTAAACAAATTTTCCTAATCTTTCTGTTCAAGCGCCATCTAC”, the binding signal (RPM ratio (pull-down/input)) worked out at 0.302.
Consider “GATGATTGTTCTCCCAGCTGATGAATTTTAAGTGTCGAGTAAACAAATTTTCCTAATCTTTCTGTTCAAGCGCCATCTAC”, for which the binding signal (RPM ratio (pull-down/input)) was found to be 0.523.
The same measure for “GATGATTGTTCTCCCAGCTGATGAATTCGGCAAATCGAGTAAACAAATTTTCCTAATCTTTCTGTTCAAGCGCCATCTAC”: 0.528.
Consider “GATGATTGTTCTCCCAGCTGATGAATTCTGACTATCGAGTAAACAAATTTTCCTAATCTTTCTGTTCAAGCGCCATCTAC”, for which the binding signal (RPM ratio (pull-down/input)) is 0.567.
As to “GATGATTGTTCTCCCAGCTGATGAATTATCACCATCGAGTAAACAAATTTTCCTAATCTTTCTGTTCAAGCGCCATCTAC”, the binding signal (RPM ratio (pull-down/input)) is 0.464.
With “GATGATTGTTCTCCCAGCTGATGAATTCATGAGTTCGAGTAAACAAATTTTCCTAATCTTTCTGTTCAAGCGCCATCTAC”, the binding signal (RPM ratio (pull-down/input)) worked out at 0.957.
In the case of “GATGATTGTTCTCCCAGCTGATGAATTCAGCCGCTCGAGTAAACAAATTTTCCTAATCTTTCTGTTCAAGCGCCATCTAC”, the binding signal (RPM ratio (pull-down/input)) turned out to be 1.04.
Under “GATGATTGTTCTCCCAGCTGATGAATTCAAGCCATCGAGTAAACAAATTTTCCTAATCTTTCTGTTCAAGCGCCATCTAC” stands 1.14; under “GATGATTGTTCTCCCAGCTGATGAATTCACCCATTCGAGTAAACAAATTTTCCTAATCTTTCTGTTCAAGCGCCATCTAC”, 0.317.
